Data reported in the RNAGym collection of RNA variant scans (doi:10.7554/elife.90254).
Read counts are not given, so values of variants with three or more changes are uncertain.

B1: LINE1-mini (parent)
chain: GGCAGAGCUCAACACAGCGUGGCAAAGUGGCUGUGGCUAGACUGCC

Variants of: B1
Test: self-cleavage, relative activity (ratio to wild type); higher = more cleavage; in vitro, sequencing; the parent is a self-cleaving ribozyme

For GGGAGAGCUCAAUACAGCGUGGCAAAGUGGCCUUGGGAAGACUGCC [C3G C13U U32C G33U C37G U38A], which self-cleavage is on record?
The self-cleavage was 0.45.

For GGCAUAGCUCACCACAGCGUGGCAAAGUGGAUGUGGCUAGACUGCC [G5U A12C C31A], which self-cleavage is on record?
The self-cleavage was 0.01.

With GGCAGAGCUCAACACAGCGUGGCAAAUUGGCCGUGUCUAGACUGCC [G27U U32C G36U] as the variant, how does the self-cleavage read?
Its self-cleavage is 0.06.

With GGCAGAUCUCAACACAGUGUGGCAAAGUGGCUGGGGCUAGACUGCC [G7U C18U U34G] as the variant, how does the self-cleavage read?
The self-cleavage was 0.1.

For UGCAGAGCUCAACACAGCGGGGCAAAGUGGCUGUAGCUAGAAUGCC [G1U U20G G35A C42A], which self-cleavage is on record?
Its self-cleavage is 0.09.

Which self-cleavage does the source give for GGCAGAGCUCAACAUAGUGUGUCAAAGUGGCUGUUGCUAGACUGCC [C15U C18U G22U G35U] here?
Its self-cleavage is 0.38.

Which self-cleavage does the source give for CGCAGAGCUCAACACAGCGUGGCAAAGUGGGUGUGGGUAGACUGCC [G1C C31G C37G] here?
Its self-cleavage is 0.02.

Which self-cleavage does the source give for GGCAGAGGUCAACAAAGCGCGGCAAAGAGGCUGUGGCUAGACUGCC [C8G C15A U20C U28A] here?
The self-cleavage was 0.04.

For UGCUGAGCUCAACACAGCGUGGCAAAGUAGCUGUGGCUAGACUGCC [G1U A4U G29A], which self-cleavage is on record?
Its self-cleavage is 0.16.

For UGCAGAGCUCAACACAGCAUGGCAACGUGGUUGUGGCUAGAUUGCC [G1U G19A A26C C31U C42U], which self-cleavage is on record?
Its self-cleavage is 0.04.

With GACAGAGCUCAAUACAGCAUGGCAAAGUGGCUGUGGCUAGAUUGCC [G2A C13U G19A C42U] as the variant, how does the self-cleavage read?
Its self-cleavage is 0.39.

Which self-cleavage does the source give for GGCAGAGCGCAAUCCAGCGAGGGAAAGUUGCUGUGGCUAGACUGCC [U9G C13U A14C U20A C23G G29U] here?
The self-cleavage was 0.05.

With GGCAGAGCCCAACACAGCGUGGCAAAGUAGCUGUGGCUAGACUGGC [U9C G29A C45G] as the variant, how does the self-cleavage read?
Its self-cleavage is 0.04.

For GGCAGAGCUAAACACAGCGUGGCAAAGUGGCUGUGGCUAGAUUGGC [C10A C42U C45G], which self-cleavage is on record?
The self-cleavage was 0.02.

With GGCAGAGUUCCAAACAGCGUGGAAAAGUGGCUGUGGCUAGAAUGCC [C8U A11C C13A C23A C42A] as the variant, how does the self-cleavage read?
Its self-cleavage is 0.02.

Which self-cleavage does the source give for GGCAGAGCUCAACACAGCAUGGCAAACUUGCUGUGGCUAGACUGCC [G19A G27C G29U] here?
Its self-cleavage is 0.63.

With GGCAGAGCUCAACACAACGUGGCAAAGUAGCUGUGGAUAGACUGCC [G17A G29A C37A] as the variant, how does the self-cleavage read?
The self-cleavage was 0.19.

For GGCAGAGCUCAACAUAGCGUGGCAGUGUGGCUGUGGCUAGACUGCC [C15U A25G A26U], which self-cleavage is on record?
Its self-cleavage is 0.04.

Which self-cleavage does the source give for GGCAGAGCUCAACACAGCGUGCCAAUGUGGCUGUAGCUAGACUGCC [G22C A26U G35A] here?
The self-cleavage was 0.12.

Which self-cleavage does the source give for GGCAGAGCUCAACACAGCGUGGCAAAGUGACUGUGGCUAGGAUGUA [G30A A41G C42A C45U C46A] here?
The self-cleavage was 0.05.

For GGCAGAGCUCAACACAGGGUGGUAAAGUGGCUGUGCCUAGACUGCC [C18G C23U G36C], which self-cleavage is on record?
The self-cleavage was 0.01.

With GGCAGAGCUCAACACAGCGUGGCAAAGUGGCUGUGGUAAUACUGCC [C37U U38A G40U] as the variant, how does the self-cleavage read?
The self-cleavage was 0.49.

Which self-cleavage does the source give for GACAUAGAUCAACACAGCGUGGCAAAGUGGCUGUGGCUAGACUUCC [G2A G5U C8A G44U] here?
Its self-cleavage is 0.19.

Which self-cleavage does the source give for GGCAAAGCUCAACACAGCGUGGCUAAGUGGCUGUGGCUAGACUGCU [G5A A24U C46U] here?
Its self-cleavage is 0.09.

For GGCAGAGCUCAACACAUCGUGAGAAAGUGGCUGUGGCUAGGCUUCC [G17U G22A C23G A41G G44U], which self-cleavage is on record?
Its self-cleavage is 0.01.

For GGCAGAGCUCAACACAGCGUGGCAAAGUGGGUUAGGCUAGACUGCC [C31G G33U U34A], which self-cleavage is on record?
The self-cleavage was 0.05.

With GGCCGAUCUCAACACAGCGUGGCAAAGUCGCUGUGGCUAGACUGCC [A4C G7U G29C] as the variant, how does the self-cleavage read?
The self-cleavage was 0.02.

With GGCAGAGGUCAACACAGCGUGGCAAAGUGGCUAUGUCUAGAUUGCC [C8G G33A G36U C42U] as the variant, how does the self-cleavage read?
The self-cleavage was 0.03.

For GGCAGCGCUCAACACAGCGUGGCAAACUGGCUUUGGUAAGUAUGCC [A6C G27C G33U C37U U38A A41U C42A], which self-cleavage is on record?
Its self-cleavage is 0.02.

With GGCAGAGCUCAACACAGCGUGACAAAGUGGUUGUGGCAAGGCUGCC [G22A C31U U38A A41G] as the variant, how does the self-cleavage read?
Its self-cleavage is 0.12.

With GGCAGAGCUCAACAGAGCAUGGCAAAGUGGCUGCGGCUAGACUGCC [C15G G19A U34C] as the variant, how does the self-cleavage read?
The self-cleavage was 0.04.

With GACAUAGCUCAACACAGCGUGGCAAAGUAGCUGUGGCUAGACUGCC [G2A G5U G29A] as the variant, how does the self-cleavage read?
Its self-cleavage is 0.18.

Which self-cleavage does the source give for GGCAUACCUCAAUACAGCGUGGCAAAGUGGCUGUGGCUAGACUGCC [G5U G7C C13U] here?
Its self-cleavage is 0.37.

With GGCAGAGCUCAACACACCGUGGCAGAAUGGCUGUGGUUAGACUGCC [G17C A25G G27A C37U] as the variant, how does the self-cleavage read?
The self-cleavage was 0.01.

Which self-cleavage does the source give for GGCGGAUGUCAACACAGCAUGGCAAAAUGGAUGUGGCUAGACUGCC [A4G G7U C8G G19A G27A C31A] here?
Its self-cleavage is 0.09.

For GGCAGAGCCCAACACAGCGUGGCCAAGUUGCUGUGGCUAGACUGCC [U9C A24C G29U], which self-cleavage is on record?
Its self-cleavage is 0.14.

With GGCAGAGCUCAACCCAGCUUGGCAAAGUGGCUGUGGCCAGACUGCC [A14C G19U U38C] as the variant, how does the self-cleavage read?
The self-cleavage was 0.03.

With GGAAGAGCUCAAUACCGCGUGGCAAAUUGGCAGUGGCUAGACUGCC [C3A C13U A16C G27U U32A] as the variant, how does the self-cleavage read?
Its self-cleavage is 0.31.

With GGCAGAGCUCAGCACUGCGUGGCAAAGUGGCUGUGGCUAGGCUGCC [A12G A16U A41G] as the variant, how does the self-cleavage read?
The self-cleavage was 0.07.

For GGCAGAACAUAACACAGCGUGGCAAAGUGGAUGUGGCUAGACUGCC [G7A U9A C10U C31A], which self-cleavage is on record?
The self-cleavage was 0.04.

For GGCAGAGGUCAACACAGCGUGGAAAAGUGGAUGUGGCUAUACUGCC [C8G C23A C31A G40U], which self-cleavage is on record?
The self-cleavage was 0.01.

For GGCAGAGCUCAACACAGGGUGGCAAAGGGGCUGAGGCUAGACUGCC [C18G U28G U34A], which self-cleavage is on record?
Its self-cleavage is 0.03.

For GGCAGAGCUCAACACAGCGUGGCAAAGUGGCAGUCCCUAAACUACC [U32A G35C G36C G40A G44A], which self-cleavage is on record?
The self-cleavage was 0.03.

Which self-cleavage does the source give for AUAAGAGCUCAACACAGCGUGGCAAAGUGGCUGUGGCUAGACUGCC [G1A G2U C3A] here?
The self-cleavage was 2.2.

For GGCAGAGCUCAACACAGCGCGGCAAAAUGGCUGUGGCUAAACUUCC [U20C G27A G40A G44U], which self-cleavage is on record?
Its self-cleavage is 0.06.

Which self-cleavage does the source give for GGCAGAGAUCAACACAGCGUGGCAAAGUCGCUGUGGCUAGACUACC [C8A G29C G44A] here?
The self-cleavage was 0.

For GGCAGGGCUCGACUCAGCGUGGAAAAUUGGCUGUGGCUAGACUGCC [A6G A11G A14U C23A G27U], which self-cleavage is on record?
Its self-cleavage is 0.

For GGCAGACCUCAACACAGCGUGGCAAAGUGGCUGUGCCUAGACUGUC [G7C G36C C45U], which self-cleavage is on record?
The self-cleavage was 0.02.

Which self-cleavage does the source give for GGCAGAGCUCAACACAGCGUGGCUAAGUGGCUGUUGCUAUACUGCC [A24U G35U G40U] here?
Its self-cleavage is 0.04.

Which self-cleavage does the source give for GGCAGAGCUCAACAAAGCGGGGAAAAGUGGAUGUGGCUAGACUGCC [C15A U20G C23A C31A] here?
Its self-cleavage is 0.

With GGCAGAGAUCAACACAGCGUGGCAAAGUGGCUGUAGCUAGUCUGCC [C8A G35A A41U] as the variant, how does the self-cleavage read?
Its self-cleavage is 0.56.

With CGCAGAGCUCAACACAGUGGGGCAAAGGGGCCGUGGCUAAACUGCC [G1C C18U U20G U28G U32C G40A] as the variant, how does the self-cleavage read?
The self-cleavage was 0.

Which self-cleavage does the source give for GGCAGAGCUUAACACAGCGUGGCAAAGUGGCUGUGGCUAAACCGCC [C10U G40A U43C] here?
Its self-cleavage is 0.13.

For GGCAGAGCUAAACACAGCGUGGCAAAGUGGCUGUGUUUAGACUGCC [C10A G36U C37U], which self-cleavage is on record?
Its self-cleavage is 0.02.

For GGCAGAGUUCACCACAACGUGGCAAAGUGGCUGUGGCUAGACUGAC [C8U A12C G17A C45A], which self-cleavage is on record?
The self-cleavage was 0.02.

For GGCAGAGUUCAACACAGCGUGGCAAAGUGGCUGCGGCUAGACUACC [C8U U34C G44A], which self-cleavage is on record?
The self-cleavage was 0.12.
